# Assay results published in PubChem BioAssay AID504333 (National Center for Advancing Translational Sciences (NCATS), 2011).
# The campaign covered roughly 360,000 compounds. About 16,000 (4.4%) were called active. The shares of active, inactive and inconclusive entries below differ from those in the screen. The call rests on the fitted dose curve; in most records, active means well fitted inhibition curve with a large enough effect; inconclusive means small, poorly fitted or top-dose-only effect; inactive means no such curve, though single readings can be large or run the other way. Potencies of inconclusive entries are doubtful fits and often do not repeat.
# Biological target: Bromodomain adjacent to zinc finger domain protein 2B (Homo sapiens) (UniProt Q9UIF8)
# Sequence of UniProt Q9UIF8 (Q9UIF8 whole entry, looked up, the tested form may be a part): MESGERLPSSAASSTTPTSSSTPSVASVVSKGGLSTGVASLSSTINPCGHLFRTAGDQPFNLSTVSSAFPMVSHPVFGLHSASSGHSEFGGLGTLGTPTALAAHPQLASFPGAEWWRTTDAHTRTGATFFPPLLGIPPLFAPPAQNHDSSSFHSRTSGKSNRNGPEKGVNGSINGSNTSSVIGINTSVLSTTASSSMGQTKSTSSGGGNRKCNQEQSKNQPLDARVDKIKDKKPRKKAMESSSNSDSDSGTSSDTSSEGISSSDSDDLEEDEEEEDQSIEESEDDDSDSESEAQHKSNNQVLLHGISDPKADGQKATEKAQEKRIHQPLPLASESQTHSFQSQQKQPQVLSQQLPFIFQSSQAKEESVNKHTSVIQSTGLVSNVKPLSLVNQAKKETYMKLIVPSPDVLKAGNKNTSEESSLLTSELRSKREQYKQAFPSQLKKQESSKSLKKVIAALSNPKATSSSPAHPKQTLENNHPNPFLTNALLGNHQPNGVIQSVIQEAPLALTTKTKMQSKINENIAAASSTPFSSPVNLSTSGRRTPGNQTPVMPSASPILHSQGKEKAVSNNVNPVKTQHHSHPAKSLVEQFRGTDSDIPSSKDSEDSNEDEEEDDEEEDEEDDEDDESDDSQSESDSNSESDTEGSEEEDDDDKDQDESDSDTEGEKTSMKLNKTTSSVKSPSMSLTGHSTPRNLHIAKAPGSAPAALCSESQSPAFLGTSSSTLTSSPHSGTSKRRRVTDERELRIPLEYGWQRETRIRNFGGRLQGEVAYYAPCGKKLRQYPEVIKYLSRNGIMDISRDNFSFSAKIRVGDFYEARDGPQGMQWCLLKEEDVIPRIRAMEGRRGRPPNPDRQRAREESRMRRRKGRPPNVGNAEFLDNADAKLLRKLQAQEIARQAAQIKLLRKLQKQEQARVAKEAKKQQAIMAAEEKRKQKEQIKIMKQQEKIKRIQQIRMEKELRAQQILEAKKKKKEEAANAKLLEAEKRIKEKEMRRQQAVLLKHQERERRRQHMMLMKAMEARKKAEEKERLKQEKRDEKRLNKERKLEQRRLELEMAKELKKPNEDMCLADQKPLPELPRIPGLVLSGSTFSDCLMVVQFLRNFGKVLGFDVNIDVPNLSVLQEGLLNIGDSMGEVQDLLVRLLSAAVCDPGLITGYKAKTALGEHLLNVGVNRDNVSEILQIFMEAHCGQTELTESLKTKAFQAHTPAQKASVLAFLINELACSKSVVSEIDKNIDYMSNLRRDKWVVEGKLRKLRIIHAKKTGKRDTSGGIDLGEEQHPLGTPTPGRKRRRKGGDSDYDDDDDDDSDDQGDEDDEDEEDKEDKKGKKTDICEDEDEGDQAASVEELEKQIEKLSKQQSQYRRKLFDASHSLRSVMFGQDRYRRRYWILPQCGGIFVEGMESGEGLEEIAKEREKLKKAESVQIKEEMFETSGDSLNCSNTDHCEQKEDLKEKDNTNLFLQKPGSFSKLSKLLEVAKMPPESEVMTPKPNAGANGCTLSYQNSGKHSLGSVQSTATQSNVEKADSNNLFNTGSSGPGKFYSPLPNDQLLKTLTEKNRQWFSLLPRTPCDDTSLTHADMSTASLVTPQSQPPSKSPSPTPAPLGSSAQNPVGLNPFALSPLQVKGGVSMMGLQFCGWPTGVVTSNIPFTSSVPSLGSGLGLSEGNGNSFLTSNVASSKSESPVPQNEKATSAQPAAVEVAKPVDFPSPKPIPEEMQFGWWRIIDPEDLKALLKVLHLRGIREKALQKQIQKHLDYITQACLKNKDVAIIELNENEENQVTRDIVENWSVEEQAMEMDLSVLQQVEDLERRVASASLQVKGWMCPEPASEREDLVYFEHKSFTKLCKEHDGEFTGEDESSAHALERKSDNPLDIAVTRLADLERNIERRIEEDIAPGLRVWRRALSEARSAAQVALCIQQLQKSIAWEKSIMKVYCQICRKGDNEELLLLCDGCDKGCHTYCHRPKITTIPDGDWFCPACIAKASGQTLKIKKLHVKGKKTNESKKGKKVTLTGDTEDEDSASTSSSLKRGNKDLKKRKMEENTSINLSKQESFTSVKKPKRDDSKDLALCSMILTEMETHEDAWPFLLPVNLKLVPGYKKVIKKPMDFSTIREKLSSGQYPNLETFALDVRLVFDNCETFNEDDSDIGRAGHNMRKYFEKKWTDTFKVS
# Test: qHTS Assay for Inhibitors of BAZ2B; further: nearly all actives have a fitted effect of over 60% in size
# Details: AlphaScreen BAZ2B-H3K14Ac peptide displacement; series mostly up to 114 µM
# How it was run: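 BAZ2B (50 nM) with biotin-H3(5-23)K14Ac peptide (50 nM) in PBS pH 7.4, 0.01% Tween-20, preformed 30 min, then compound 30 min at room temperature; top concentration 110uM. AlphaScreen streptavidin donor/nickel chelate acceptor beads (10 ug/mL final), 20 min dark, signal read.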
# Potency means the concentration at half of the fitted maximal effect; tags describe the fitted curve by direction and shape.
row,Structure (SMILES),Potency
1,Cc1ccc(C2C(C#N)=C(N)N(c3cccnc3)C3=C2C(=O)CCC3)s1 (centres undefined),"inconclusive: 70.8 µM [inhibitor, partial curve]"
2,CC1(C)CC(=O)c2ccc(OCc3ccc([N+](=O)[O-])cc3)cc2O1,"inconclusive: 31.6 µM [inhibitor, full curve, poor fit]"
3,O=C(c1ccco1)N1CCN(C(=S)Nc2ccc(Br)cc2Cl)CC1,inactive
4,COc1cc([C@H]2Oc3c(OC)cc(CCCO[C@@H]4O[C@H](CO)[C@@H](O)[C@H](O)[C@H]4O)cc3[C@@H]2CO)ccc1O,inactive
5,O=C(NNC(=S)Nc1ccc(Cl)cc1)c1cccs1,inactive
6,CCN1CCN(CCNC(=O)c2ccc(/C=C3/Sc4ccccc4N(Cc4ccccc4C)C3=O)cc2)CC1,"inconclusive: 44.7 µM [inhibitor, partial curve]"
7,CC(C)Oc1ccc(Br)cc1/C=N\NC(N)=S,"inconclusive: 70.8 µM [inhibitor, single point]"
8,CCN(CC)c1ccc(NS(=O)(=O)c2ccc(-c3coc(C)n3)cc2)c(C)c1,active: 12.6 µM
9,CCOCCc1nnc(NC(=O)C2CCN(C(=O)c3ccco3)CC2)s1,inactive
10,Cc1ccc(Cn2c(C(=O)O)cc3sccc32)cc1,"inconclusive: 79.4 µM [inhibitor, single point]"
11,COc1ccc(-c2oc3ncn4nc(-c5ccccc5Cl)nc4c3c2-c2ccc(OC)cc2)cc1,inactive
12,CCCNC(=O)C(Cc1ccc(OC)cc1)NC(=O)c1ccc(C#N)cc1 (centres undefined),"inconclusive: 7.94 µM [inhibitor, single point]"
13,Cc1cc(Cl)ccc1NC(=O)CCn1nc(C)c2c(C)n(-c3ccccc3)nc2c1=O,"inconclusive: 89.1 µM [inhibitor, single point]"
14,O=c1c2ccccc2nc(-c2ccc(Cl)cc2Cl)n1O,"inconclusive: 89.1 µM [inhibitor, single point]"
15,C=CCNC(=O)c1sc(=S)n(-c2ccc(C(=O)OCC)cc2)c1N,"inconclusive: 89.1 µM [inhibitor, single point]"
16,C/C(=N\Nc1ccc(C(=O)O)cc1)c1ccc(Cl)s1,"inconclusive: 39.8 µM [inhibitor, partial curve]"
17,CCOC(=O)C1CCN(C(=O)CCn2c(=O)c3cccn3c3cccnc32)CC1,inactive
18,CC(C)NC(=O)c1cnc(Sc2ncc(C(F)(F)F)cc2Cl)n1C,"inconclusive: 5.62 µM [inhibitor, full curve]"
19,CCOc1cc(/C=N/Nc2cccc(C(=O)O)c2)ccc1OC(=O)c1ccccc1,"inconclusive: 50.1 µM [inhibitor, partial curve]"
